Reference: PubChem BioAssay AID624296 (National Center for Advancing Translational Sciences (NCATS), 2012)
“And” between values parts separate entries of the source, which are not always exact repeats. Identical values can stand only once. Screen size: about 350,000 compounds; about 9,900 (2.8%) were called active. The shares of active, inactive and inconclusive entries below differ from those in the screen. Calls follow the shape of the dose curve; as a rule, active = well fitted activation curve with a large enough effect; inconclusive = small, poorly fitted or top-dose-only effect; inactive = no such curve, though single readings can be large or run the other way. Potencies beside an inconclusive call are fits to weak or partial responses and may not hold up.
Potency is read from the fitted curve at half-maximal effect; tags tell the direction and shape of the fitted curve.

Test: A quantitative high throughput screen for small molecules that induce DNA re-replication in MCF 10a normal breast cells. Also: nearly all actives have a fitted effect of over 50% in size. As to activity, positive = re-replication: % of control where 0% means no effect.
Settings: MCF 10A DNA re-replication, Hoechst nuclear intensity, 48 h; activity, positive = re-replication: at 46.1 µM (top of the series)
Source text: H Molecular Libraries Probe Production Network [MLPCN]
NIH Chemical Genomics Center [NCGC]
Assay Provider: Melvin DePamphilis, NICHD, NIH
Eukaryotic cells normally restrict genome duplication to once per cell division. When this process is aberrant, DNA re-replication occurs when cells reinitiate DNA replication before the first round of replication is complete. DNA re-replication induces the DNA damage response, arrests cell proliferation, and triggers apoptosis. The cell cycle components cyclin A, Cdt-1, Cdc6 and geminin are critical regulators of this process and their misregulation results in DNA re-replication in normal and cancer cells. To identify compounds that induce re-replication in normal cells, an image-based assay was used to measure DNA content of nuclei, as detected by the fluorescent DNA binding dye, Hoechst. Cell nuclei were imaged by a fluorescence scanning plate imager and compounds that induce DNA re-replication were identified by the increase of nuclei with elevated fluorescence intensity
For screening, 250 cells in 5 uL/well were dispensed into black clear 1536-well plates (Aurora) using a solenoid-based dispenser. Following transfer of 23 nL compound or DMSO vehicle by a pin tool, the plates were incubated 48 hr at 37 C and 5% CO2. After addition of 1 uL/well Hoescht stain, the plates were incubated 40 min at 37 C, 5% CO2 and total intensity of fluorescent objects (nuclei) were enumerated by an Acumen Explorer Ex3 (TTP LabTech) fluorescence scanning plate imager (405 nm excitation, 500-530 nm emission).
Keywords: NIH Roadmap, MLPCN, MLI, MLSMR, qHTS, NCGC, DNA replication, cancer
For `O=C(CN1CC=C(c2ccccc2)CC1)Nc1cc(Cl)ccc1Cl`, the Potency was active: 18.4 µM.
In the case of `CC(C)(C)c1cc(O)ccc1O`, the Potency was active: 29.9 µM.
With `COC(=O)C1=C(c2ccc(OC)c(OC)c2)C[C@@H]2CC[C@H]1N2C(=O)N1CCC(O)CC1` the “activity, positive = re-replication” value was inactive: 3.85%.
For `CN(C)C(=O)Oc1ccc(OCc2n(C)c3ccccc3[n+]2C)cc1`, the “activity, positive = re-replication” value was inactive: 4.54%.
With `COC(=O)C1CN(C#N)N(c2ccc(Cl)cc2)C12c1ccccc1-c1ccccc12` (centres undefined) the Potency was active: 7.08 µM.
For `Cc1cccc(N2C(=O)NC(=O)/C(=C\c3ccc4c(c3)CCCN4Cc3ccccc3)C2=O)c1`, the Potency was inconclusive: 29.1 µM [activator, single point].
In the case of `O=[N+]([O-])c1cc(C(F)(F)F)ccc1Cl`, the Potency was inconclusive: 1.84 µM [activator, partial curve, poor fit].
In the case of `CCCCCn1c(=O)c(C(=O)NCc2ccccc2Cl)c(O)c2ccccc21`, the “activity, positive = re-replication” value was inactive: 3.44%.
In the case of `Cc1ccc(S(=O)(=O)N(C)c2ccc(C(=O)NCC3(N(C)C)CCCCC3)cc2)cc1`, the Potency was inconclusive: 2.06 µM [activator, full curve, poor fit].
For `Fc1ccc(C(OCCN2CCCC2)c2ccc(F)cc2)cc1`, the Potency was inconclusive: 23.1 µM [activator, single point].
In the case of `CCCCCCCCCCCCCCCC[n+]1ccccc1`, the Potency was inconclusive: 15 µM [activator, full curve, poor fit] and inconclusive: 10.3 µM [activator, partial curve, poor fit].
With `C[C@]12CC[C@H](OS(=O)(=O)O)CC1=CCC1C2CC[C@]2(C)C(=O)CC[C@@H]12` (some centres undefined) the “activity, positive = re-replication” value was inactive: -3.12%.
For `Cc1ccc(/C=C2\C(=O)NC(=O)N(CCc3ccc(F)cc3)C2=O)o1`, the Potency was inconclusive: 14.1 µM [activator, single point].
With `O=C1NC(=O)C(=Cc2ccc(OCCOc3ccc([N+](=O)[O-])cc3)cc2)C(=O)N1` the “activity, positive = re-replication” value was inactive: -7.35%.
For `Cc1cc(N(CCCl)CCCl)ccc1/C=N/N=C(\N)c1cnccn1`, the Potency was inconclusive: 18.4 µM [activator, partial curve, poor fit].
In the case of `COC(=O)C1=C(c2cccc(OCc3ccccc3)c2)C[C@@H]2CC[C@H]1N2C(=O)NNCc1ccccc1`, the Potency was inconclusive: 29.1 µM [activator, single point].
With `Clc1ccc(C(c2ccc(Cl)cc2)n2cc[n+](CC(OCc3ccc(Cl)cc3Cl)c3ccc(Cl)cc3Cl)c2)cc1` (centres undefined) the Potency was active: 5.17 µM.
In the case of `CCOc1cc2c(cc1OCC)-n1cccc1C(c1ccc(OC)cc1)NC2` (centres undefined), the Potency was inconclusive: 10.3 µM [activator, partial curve, poor fit].
With `C[C@]12CCC3C(CC[C@H]4CC(O)CC[C@]34C)C1CC/C2=N/NC(=O)c1ccncc1` (some centres undefined) the Potency was inconclusive: 25.9 µM [activator, partial curve, poor fit].
In the case of `CCOC(=O)c1c(C)[nH]c(C(=O)C(Cc2ccccc2)N(C)C)c1C` (centres undefined), the Potency was inconclusive: 16.4 µM [activator, partial curve, poor fit].
For `CC(CO)NC(=O)C1C=C2c3cccc4[nH]cc(c34)CC2N(C)C1` (centres undefined), the “activity, positive = re-replication” value was inactive: -3.85%.
In the case of `CN(c1ccc(OCC(=O)N2CCN(C/C=C/c3ccccc3)CC2)cc1)S(=O)(=O)c1cccs1`, the Potency was inconclusive: 16.4 µM [activator, single point].
For `O=C(CF)NC(NC(=S)Nc1ccccc1O)C(Cl)(Cl)Cl` (centres undefined), the Potency was inconclusive: 6.51 µM [activator, partial curve, poor fit].
In the case of `N#CC(C#N)=C(C#N)c1ccc(Nc2ccccc2)cc1`, the Potency was inconclusive: 29.1 µM [activator, single point].
For `O=C1/C(=C/c2cccnc2)SC(=NCc2ccccc2)N1Cc1ccccc1`, the Potency was inconclusive: 23.1 µM [activator, single point].
For `Cc1ccc(CN2CCN(Cc3ccccc3)CC2)cc1`, the “activity, positive = re-replication” value was inactive: 9.14%.
For `Nc1ccc(-c2ccccc2)cc1`, the “activity, positive = re-replication” value was inactive: 0.503%.
With `O=[N+]([O-])c1ccc(N2CCCC2)c2ccncc12` the “activity, positive = re-replication” value was inactive: 12.9%.
In the case of `C[C@H]1CN([C@@H](C)CO)C(=O)c2cc(NC(=O)C3CCCCC3)ccc2O[C@H]1CN(C)Cc1ccc(-c2ccccc2)cc1`, the Potency was inconclusive: 25.9 µM [activator, single point].
For `COC(=O)C1=C(c2ccc(F)cc2OCc2ccccc2)C[C@@H]2CC[C@H]1N2C(=O)NCc1ccc(Br)cc1`, the Potency was inconclusive: 29.1 µM [activator, single point].
With `CC(=O)OC1CC(OC2C(O)CC(OC3C(O)CC(OC4CCC5(C)C(CCC6C5CCC5(C)C(C7=CC(=O)OC7)C(O)CC65O)C4)OC3C)OC2C)OC(C)C1OC1OC(CO)C(O)C(O)C1O` (centres undefined) the Potency was inconclusive: 0.206 µM [activator, full curve, poor fit].
With `C=CCN1C(=O)/C(=C\c2ccc(N3CCOCC3)o2)C(=O)NC1=S` the Potency was inconclusive: 29.1 µM [activator, single point].
For `CCCCN=C[C@]12CCC(O)CC1(O)CCC1[C@@H]2CC[C@]2(C)[C@H](C3C=CC(=O)O3)CCC12O` (some centres undefined), the Potency was inconclusive: 0.164 µM [activator, full curve, poor fit].
In the case of `Nc1ccc(CCN2CCCC2)cc1`, the “activity, positive = re-replication” value was inactive: 1.96%.
In the case of `C[n+]1c(-c2ccccc2)cc(CCCCc2cc(-c3ccccc3)[n+](C)c(-c3ccccc3)c2)cc1-c1ccccc1`, the Potency was inconclusive: 23.1 µM [activator, single point].
For `N#CSCC(=O)N1c2ccccc2CCc2ccccc21`, the Potency was inconclusive: 25.9 µM [activator, single point].
With `C[C@]12C=CC(=O)C=C1CC[C@@H]1C2CC[C@]2(C)OC(=O)CCC12` (some centres undefined) the Potency was inconclusive: 29.1 µM [activator, single point].
For `Cc1nc2c(C(=O)N3CCC4(CC3)OCCO4)cnn2c(C)c1Cc1cccc(Cl)c1`, the “activity, positive = re-replication” value was inactive: 42.4%.
For `CCCCn1c(O)c(/C=C2/C=CC=N2)c(=O)[nH]c1=O`, the Potency was inconclusive: 13 µM [activator, partial curve, poor fit].
In the case of `CCc1nnc(NC(=O)CCc2nc(C3=CCN(C)CC3)no2)s1`, the Potency was inconclusive: 10 µM [activator, partial curve, poor fit].
With `CCCCCCCCCC(CC)c1ccc(S(=O)(=O)O)cc1` (centres undefined) the “activity, positive = re-replication” value was inactive: 0.519%.
In the case of `Cc1ccc(-n2sc3ccccc3c2=O)cc1`, the Potency was inconclusive: 29.1 µM [activator, single point].
In the case of `O=[N+]([O-])c1ccc(N2CCCCCC2)c2nonc12`, the Potency was inconclusive: 29.1 µM [activator, partial curve, poor fit].
For `CC1(C)CSC(=NCc2ccccc2)N1`, the Potency was inconclusive: 29.1 µM [activator, partial curve, poor fit].
With `CC(C)COP(=O)(OCC(C)C)C(Nc1ccccc1)c1ccccc1` (centres undefined) the Potency was inconclusive: 29.1 µM [activator, single point].
For `O=C(c1ccc2c(c1)ncn2-c1ccc(F)cc1F)N1CCC2(CC1)OCCO2`, the Potency was inconclusive: 20.6 µM [activator, single point].
In the case of `COC(=O)[C@@H]1[C@@H](C(=O)OC)C2(c3ccccc3-c3ccccc32)N(c2ccc(Cl)cc2)N1C#N`, the Potency was active: 7.08 µM.
In the case of `COc1ccc(CCn2c(O)c(/C=N/N3CCOCC3)c(=O)[nH]c2=O)cc1OC`, the “activity, positive = re-replication” value was inactive: -0.915%.
For `Cc1ccc(OCCn2cccc2/C=C2/C(=O)NC(=O)N(Cc3ccco3)C2=O)cc1`, the Potency was inconclusive: 20.6 µM [activator, single point].
For `CN1C2CCC1CC(OC(=O)c1cc(Cl)cc(Cl)c1)C2` (centres undefined), the Potency was inconclusive: 5.8 µM [activator, partial curve, poor fit].
With `Fc1ccc(C2=CCN(C(c3ccc(Cl)cc3)c3nnnn3Cc3ccccc3)CC2)cc1` (centres undefined) the “activity, positive = re-replication” value was inactive: 3.49%.
With `CC(C)(C)CC(C)(C)c1ccc(O)cc1` the Potency was inconclusive: 33.5 µM [activator, single point].
With `COc1ccc(-c2nn(-c3ccccc3)cc2C(=O)N2c3ccc(C)cc3C3CN(C)CCC32)cc1` (centres undefined) the Potency was inconclusive: 18.4 µM [activator, partial curve, poor fit].
In the case of `CCC(=O)OC1CCC2C3CCC4CC(=O)C=CC4(C)C3CCC12C` (centres undefined), the Potency was inconclusive: 18.4 µM [activator, single point].
For `C/C(=N\NC(=S)Nc1ccccc1)c1c(O)n(C)c(=O)n(C)c1=O`, the Potency was inconclusive: 29.1 µM [activator, single point].
For `CC[C@H]1CC2CN3CCc4c([nH]c5ccccc45)C(C(=O)OC)(C2)C13` (some centres undefined), the Potency was inconclusive: 16.4 µM [activator, single point].
In the case of `CCCN1CCCC(C(=O)c2cc(C)c(OC)c(C)c2)C1` (centres undefined), the Potency was inconclusive: 29.1 µM [activator, single point].
With `COc1ccccc1OCCCn1cc(C(=O)c2ccco2)c2ccccc21` the Potency was inconclusive: 20.6 µM [activator, partial curve, poor fit].
In the case of `CC(=NCc1ccc2c(c1)OCO2)c1c(O)n(C)c(=O)n(C)c1=O`, the Potency was inconclusive: 16.4 µM [activator, partial curve, poor fit].
For `CCCn1c(C)c(C(=O)c2cccc3ccccc23)c2ccccc21`, the Potency was inconclusive: 25.9 µM [activator, single point].
For `Cc1cccc(N=Nc2ccc(N(C)C)cc2)c1`, the “activity, positive = re-replication” value was inactive: -9.27%.
In the case of `NCCCP(=O)(O)CCc1ccccc1`, the Potency was inconclusive: 29.1 µM [activator, single point].
With `O=c1c2ccccc2nc(/C=C/c2ccc3c(c2)OCO3)n1-c1cccc(O)c1` the Potency was inconclusive: 25.9 µM [activator, single point].
With `CN1C(=O)N(C)C(=O)C2(Cc3cc([N+](=O)[O-])ccc3N(C)C2c2ccccc2)C1=O` (centres undefined) the “activity, positive = re-replication” value was inactive: -7.14%.
